Assay results published in the supplement of paper PMC11417369.
This is one part of the list.

These sequences were tested on PF3D7_0420300 AP2 domain 1 (GST-tagged) (assay: gcPBM binding intensity (ln(normalized median fluorescence intensity)); higher = stronger DNA binding).
How it was run: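 In this array assay, P. falciparum DNA-binding domains with a GST tag, expressed in E. coli, were applied for 1 h to primer-extended double-stranded 36-bp intergenic genomic probes and negative controls on an Agilent 4 × 180k array. Bound protein was visualised with Alexa488 anti-GST antibody at 488 nm. Binding intensity is the highest Masliner-normalised natural-log median intensity across replicate spots of either probe orientation.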

Sequence	gcPBM binding intensity (ln)
AGTATATAATAATTTACACACAAAAAAATATCAGGA [CACACA_site3517]	9.8
ACCGTGGGAAGACACACACACACACCCACATATATA [CACACA_site333]	10.2
AATAAATATATGTACACACACAAATATATACATATC [CACACA_site1903]	9.82
TTTTATAATGTTGTAGTGCAAAATACGTATATTTAT [GTGCAC_site9826]	9.22
AGATATAAGAAAAGCACACACACACCCAAAAAAAAA [CACACA_site2826]	10.2
AAAATATATATTAACACACACACAAAAAAAAAAAAA [CACACA_site1325]	10.1
GAAAATTATATGTGTTGTACACTTGCAACAACTATT [XGTACX_site3637]	9.13
CTATTATCGGTTCCTACACACAAATATAGATGTCTA [CACACA_site7651]	9.54
TATATAATACAAAAGGGTACATTAACATATTATATA [XGTACX_site3196]	9.33
TTTCACATATATATGGTGCATATTTTATGTGTAAAT [GTGCAC_site9937]	9.12
TTTGTAACTTCTTTCACACATATATATATATATATA [CACACA_site5603]	9.35
GTGTGCAAAAATTGTTGTACATTATATATAAAAAAA [XGTACX_site3246]	9.26
TATATATAAAGCAGTACACACATTTATTTTAGATAC [CACACA_site3387]	9.64
AGTGATAATTTAAAAAGTACAAATGAAATTTAGCTA [XGTACX_site3375]	9.25
AGAGAGAAAGCTATAACATGCAAAAATTTTTAGAAC [TGCATGCA_site420]	9.46
ATACAAATAAAAAAAAAAATTATAAAATTATAAAAT [CACACA_negctrl_site914]	9.22
CATATATATATATATTGTACACATTTTTTATAAAAA [XGTACX_site2526]	9.12
TATTTGCAATATAACACACACAAAAAAAGACTCGGA [CACACA_site6891]	9.93
TATATGTAATATATATGTACGTATAATATAATATTG [XGTACX_site8620]	9.27
AATTATACATTATATTGTACATATGAATAATTAAAA [XGTACX_site6829]	9.05
TTAAAAAAAATTTCAAGTACAAAGTAATATATATAT [XGTACX_site5718]	9.2
AAAAAAATTGGGAAAAGTACTTGCAGCTAGCTAAAA [XGTACX_site5178]	9.18
AAACAAATATAATATTGTACATATATATATATATAT [XGTACX_site3105]	9.16

Sequence	gcPBM binding intensity (ln)
GGATTGATAAGTGGTACACACATATATATTATATAT [CACACA_site2866]	9.49
AAATATAAAAATAGCACACATATATACCTATATATA [CACACA_site4204]	9.5
GCATTGGGAATATATAGTACATATATATATATATAA [XGTACX_site2967]	9.14
TTTTTCTTTTTCTTTTTTTCTTTTTTTTTTTTTTTC [GTGCAC_negctrl_site727]	8.96
CAGACGCACGTATTTGCACACATTGCCACGTAATTA [CACACA_site3349]	9.42
AACCATTCAACTGATGCATGCATTTAACATATAAAT [TGCATGCA_site961]	9.24
TCATTTCACAAACACACACACACAATATATTTCCTT [CACACA_site3905]	10.1
CCACAAGCAGCGGAAACATGCATATGTTGAAATAAT [TGCATGCA_site610]	9.02
AACAAAAAAAAAAAATGTACATATATATAATATATT [XGTACX_site3829]	9.23
GTTAAGAATATGTGTACACATATACATAAATACATA [CACACA_site4254]	9.45
TAATAATATTATTAATGTACAAATATATATACATAT [XGTACX_site7348]	9.15
TATATATATATATATTGTACCCTTTTCAAACTTCTC [XGTACX_site2812]	9.02
AATATCATCCTTTTTTTTTATAAAATTTAAAATATA [CACACA_negctrl_site844]	9.06
ACCTCACAAATGAATACACACAAACATATATATTTA [CACACA_site4976]	9.62
TATTTTATTATACCAAGTACAAAATTTAAATATGAA [XGTACX_site5478]	8.99
TATAAGAGAATATATACACACAAAAATAAATACAGT [CACACA_site5000]	10.3
ATTTTATGTTGAAAGTGTACGTATTAATATGTAGAA [XGTACX_site245]	9.12
ATATATATATAATTTTGTACATAATAGCAATTCTAA [XGTACX_site653]	9.07
GTTTTAAACAAAAATTGTACAATATAATCTTCCTAT [XGTACX_site2851]	9.08
GGATGGAGTAGTTAAGCATAATAAATAAAATTATGT [CACACA_negctrl_site578]	9.24
CAAAACCTTTTATGTACACACATATACATCCCACTT [CACACA_site5716]	9.6
AACAACTATTAATTTACACACATGTATATATTTTAC [CACACA_site3116]	9.64
AATAGCTAGCTGTGCACACAAACATATTTTCCAAAT [CACACA_site880]	9.63

Sequence	gcPBM binding intensity (ln)
AGGTGTGAGACCACGTTCACAAAATAAAATACATAA [CACACA_negctrl_site326]	9.14
AACACAAGAACAGAACGTACACACACATATATATAT [XGTACX_site7347]	10
TTTTTTTTTTTTTTTTGTACTCATACATACTATCAT [XGTACX_site3650]	8.96
ACATCAAGCAGACACACACACACACCCACCCACCCA [CACACA_site8012]	10.4
CAGGCACTAATAAACACACACATATAAATATAAATA [CACACA_site6320]	9.72
AATTTCTACTATTGTATGCACTTTCATACATACATA [GTGCAC_site9924]	9.31
TTTATTTTCATATGAACACACATATTTATATTATAA [CACACA_site7165]	9.45
ATACATACATATATATGTACTTATATTTTACACATT [XGTACX_site1688]	9.54
TAATAAAAGAAAAAAAGTACAGACATATTGAATTTT [XGTACX_site5044]	9.4
TACAATCTAAGGAGCACACAAAAATGGATAAATATA [CACACA_site933]	9.48
GCTTGAATAATCAATAGTACACACATATAAATATAT [XGTACX_site5964]	9.37
CAAACAATTAAACAAACACACATATACAAGTATTTA [CACACA_site5177]	9.67
TTTAAGTTTTTACTTTGTACGTATTATAATAAAATC [XGTACX_site5683]	9
TGTTCTTTTTATACTACACACTGATAAAAAAACAAA [CACACA_site3001]	9.23
TATATTTACTTATGAAGTACATATATATATATATAT [XGTACX_site5069]	9.01
ATAATAAAAAATACAAGTACACATATTATATATATA [XGTACX_site5355]	9.47
AATGCTATCATTAATGCACACATTTAAAATTAATAT [CACACA_site3548]	9.22
TTTAAAACCTTACATACACACAAATATATATATATA [CACACA_site677]	9.48
ATTTTTTTTTTTAATACACACAATTTTGATGAAGCA [CACACA_site3157]	9.27
TTTCATAAGAGAAAGACACACAAATATATATTTATT [CACACA_site827]	9.3
ACATTACCATATAAAACACACAAACATACATACATA [CACACA_site7709]	9.85
TATAATATTTGGTGCACACAAATTAACAACTGTTTA [CACACA_site3742]	9.38
TATCCATGCATTTACACACACACAAAAAAAAATTCT [CACACA_site4100]	10

Sequence	gcPBM binding intensity (ln)
TTCATACATAGAAAATGTACATATATATATATATAT [XGTACX_site1895]	9.16
ATATATATGCATAATACACACATCATATAATTAACC [CACACA_site1643]	9.78
TACAAAATATTTTACACACACATATAAATACAGATA [CACACA_site5447]	10
AAAAAAAAAAACAATACATGCATAATATTAATAAAA [TGCATGCA_site913]	9.46
AAGATATGTACTAATACACACACATATATATATATA [CACACA_site8249]	9.66
AAAGAAAAAAAATAATGTACTTATGTATTTCAGAAA [XGTACX_site3570]	9.08
ACCTTATTTATTATTGCATGTGACCATCAGATGGTA [TGCATGCA_site288]	9.39
TTTATTTTTTACCAAGTGCAATATATTATAATAATA	8.94
TAATATTTATAATAGTGTACACAATTATAAACTGAA [XGTACX_site8426]	9.27
TATTTATAAGTTTACGCATGCATATAATTATTAATA [TGCATGCA_site311]	8.98
TTTTTTTTTTTTTTTGTGCACAATTATTTCAATTTT [GTGCAC_site9884]	9.05
TTTTAAATAATTCGTAATTATAATTATGGAAAAAAG [CACACA_negctrl_site152]	8.96
AAATAAATTAAAATAAATTAAATTAAATTAGCATTA [GTGCAC_negctrl_site531]	8.87
TGTATGTTATGTATATGTACATATCTTTGTATTTAT [XGTACX_site6920]	9.45
TTTATATATATAATATGTACACATAATAATAATACA [XGTACX_site4862]	9.02
AAATGACATTTCAAAAGTACATATTTAATTAATTAA [XGTACX_site2919]	9.11
TTTATTTAAAAAGTTTGTACATATATATTATTTTGA [XGTACX_site6040]	8.97
AATTTATTATTTTATTGTACGTATTTTTTTTTTTAT [XGTACX_site2298]	9.58
AAAAAATATTAGACTTATAAAGCATAAAGGATATTA [GTGCAC_negctrl_site588]	9.2
ATATTATAGTTATGAACATGCAAACATTACGAAATA [TGCATGCA_site54]	9.34
